# Results from PubChem BioAssay AID1259400 (National Center for Advancing Translational Sciences (NCATS), 2018).
# Out of some 350,000 compounds screened, about 2,100 (0.6%) were called active. The inconclusive results got no clear call from the source; some entries with a clear call stand among them for comparison.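 How the source made its calls: active means activity change of -60% or lower, but not beyond a set lower limit; inconclusive means change between -60% and -40%, or beyond the set limit; inactive means change above -40%.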
# Molecular target: Relaxin receptor 1 (Homo sapiens) (UniProt Q9HBX9)
# Test: qHTS Assay for Antagonists of the Relaxin Receptor RXFP1
# Details: HEK293-RXFP1, relaxin-stimulated cAMP HTRF, 30 min; at 57.5 µM; stronger effect = lower value
# On the % scale 0 is the no-effect control and ±100 the full control effect.
# Chain of UniProt Q9HBX9 (Q9HBX9 whole entry, looked up): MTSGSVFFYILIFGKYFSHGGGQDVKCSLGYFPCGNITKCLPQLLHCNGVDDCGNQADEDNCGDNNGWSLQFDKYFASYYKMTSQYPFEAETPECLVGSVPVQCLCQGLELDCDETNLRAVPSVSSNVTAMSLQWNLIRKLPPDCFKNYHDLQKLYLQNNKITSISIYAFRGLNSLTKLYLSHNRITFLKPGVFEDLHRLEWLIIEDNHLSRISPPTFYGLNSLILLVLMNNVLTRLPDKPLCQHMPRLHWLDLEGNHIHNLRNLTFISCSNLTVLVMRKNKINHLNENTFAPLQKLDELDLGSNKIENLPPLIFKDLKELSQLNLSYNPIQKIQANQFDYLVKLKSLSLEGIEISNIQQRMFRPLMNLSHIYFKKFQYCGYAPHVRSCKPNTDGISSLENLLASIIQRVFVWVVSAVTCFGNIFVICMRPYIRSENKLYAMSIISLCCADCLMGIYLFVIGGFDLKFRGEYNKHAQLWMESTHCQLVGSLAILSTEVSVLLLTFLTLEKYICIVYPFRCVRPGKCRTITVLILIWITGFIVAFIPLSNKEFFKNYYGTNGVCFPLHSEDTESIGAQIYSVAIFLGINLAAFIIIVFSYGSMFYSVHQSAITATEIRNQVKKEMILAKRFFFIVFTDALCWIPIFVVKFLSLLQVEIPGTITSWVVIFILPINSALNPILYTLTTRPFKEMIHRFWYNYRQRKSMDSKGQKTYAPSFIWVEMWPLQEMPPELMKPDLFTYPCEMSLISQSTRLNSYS
row,Compound,"activity change, negative = inhibition"
1,CCc1ccc(NC(=O)N2CCN(c3nnc(C)c4c(C)n(-c5ccc(Cl)cc5)nc34)CC2)cc1,inactive: -8.54%
2,Cc1cc(C)cc(NC(=O)CSc2nccn2C2CCCC2)c1,inactive: -17.1%
3,O=C(CS(=O)(=O)c1nc(-c2ccc(Cl)cc2)cn1-c1ccccc1)Nc1cccc(Cl)c1,inconclusive: -54.3%
4,COc1ccc(NC(=O)N/C=C/c2ccco2)cc1,inconclusive: -54.4%
5,C=CCNC(=S)Nc1sc2c(c1C(=O)OCC)CCN(C(=O)OCC)C2,active: -80.3%
6,Fc1ccc(-c2ccc(/C=N\n3cnnc3)o2)cc1Cl,inconclusive: -50.1%
7,COC(=O)c1ccccc1N=Nc1c(N)[nH][nH]c1=O,inconclusive: -40.6%
8,CC(CCc1ccccc1)NC(=O)C1CC1 (configuration not stated),inactive: -1.15%
9,CSc1ccc(CCNC(=O)c2ccc(-c3nc(COc4ccc(C)cc4)c(C)o3)cc2)cc1,inactive: -11.5%
10,COC(=O)c1[nH]c2ccc(Br)cc2c1NC(=O)CN1CCN(C2CCCCC2)CC1,active: -63.2%
11,CCOc1ccc(-n2nc(CO)c(C(=O)NCc3cccs3)n2)cc1,inconclusive: -50%
12,O=C1/C(=C/c2ccc(O)cc2)SC(=S)N1CC1CCCO1 (configuration not stated),active: -73.2%
13,CCCSc1ncc(Cl)c(C(=O)NCc2ccc(OC)cc2)n1,inactive: -26.4%
14,O=C1C(Cl)=C(Nc2ccc3cn[nH]c3c2)C(=O)c2ccccc21,inconclusive: -40.1%
15,CCCCN(CC)C(=O)CSc1nc2n[nH]c(C)c2c(=N)n1-c1cccc(OC)c1,inconclusive: -41.2%
16,Cc1oc(-c2ccc(Cl)cc2)nc1CS(=O)CC(=O)N1CCN(c2cccc(C(F)(F)F)c2)CC1 (configuration not stated),inconclusive: -45.3%
17,COc1cc(/C=N/Nc2nc(Nc3ccccc3)nc(-n3nc(C)cc3C)n2)cc(OC)c1OC,inactive: 1.07%
18,O=[N+]([O-])c1cccc(-c2csc(N/N=C/c3cccc(O)c3)n2)c1,active: -67.1%
19,COc1ccc(OC)c(CNC(=O)c2c3c(nc4ccccc24)C(=O)N(C2CCCCC2)C3)c1,active: -60.9%
20,O=C(NNC(=O)c1cccs1)c1ccc(Cl)c(Cl)c1,inconclusive: -50.5%
21,CC(C)(C)NC(=O)CN(C(=O)c1snc(C(=O)NC2CCCCC2)c1N)c1ccc(F)cc1,inconclusive: -55.7%
22,Clc1ccc(-c2nnc(-c3ccccc3)c(-c3ccccc3)n2)cc1,inconclusive: -40.5%

row,Compound,"activity change, negative = inhibition"
1,CCCN(CCC)CC(O)Cn1cc(/C=C/C(=O)c2ccc(C)cc2)c2ccccc21 (configuration not stated),inconclusive: -49.3%
2,CCC(Oc1ccccc1F)C(=O)N1CCC(c2nc3ccccc3s2)CC1 (configuration not stated),inactive: -30.8%
3,N#CCCC1CCCC=C1N(Cc1ccccc1)C(=O)C(Cl)Cl (configuration not stated),inconclusive: -40.9%
4,O=[N+]([O-])c1ccc(N2CCN(CC3CCCCC3)CC2)cc1,inconclusive: -55.6%
5,O=C(Nc1nnc(-c2cccs2)o1)c1ccc(S(=O)(=O)N2CCOCC2)cc1,inconclusive: -47.3%
6,C=CCn1c(-c2cc3c(s2)CCC(CC)C3)n[nH]c1=S (configuration not stated),inconclusive: -41%
7,CCC(C)(C)c1ccc(OCC(=O)N(C)C)c(C(C)(C)CC)c1,inconclusive: -41.1%
8,O=C(NC12CC3CC(CC(C3)C1)C2)c1ccc(S(=O)(=O)N2CCOCC2)cc1,inactive: -2.26%
9,O=C1C=CC(=O)c2c(O)c(N3CCN(CCOCCO)CC3)c(Br)c(O)c21,active: -105%
10,N/C(Cc1ccc(Cl)cc1Cl)=N\OC(=O)Cc1ccc(Cl)cc1,inconclusive: -56.7%
11,CCOc1ccc(-n2c(/C=C/c3cccc(F)c3)nc3cc(OC)c(OC)cc3c2=O)cc1,inconclusive: -56.3%
12,CCCCOc1ccc(/C=N/NC(=S)Nc2cc(C)ccc2C)cc1,inactive: -5.3%
13,O=C1NC(=O)/C(=C\c2ccccc2OCc2ccccc2)S1,inconclusive: -44.2%
14,O=C(CN(C(=O)CNC(=O)c1ccco1)c1cccc(F)c1)NC1CCCCC1,inconclusive: -59%
15,O=C(Cn1cc(SCc2ccc(C(F)(F)F)cc2)c2ccccc21)N1CCOCC1,inconclusive: -47.2%
16,C=CC(=O)N1C/C(=C/c2ccc(F)cc2)C(=O)/C(=C\c2ccc(F)cc2)C1,active: -79.8%
17,CCOC(=O)c1ccc(-n2c(CCC(=O)O)ccc2-c2ccc(Br)cc2)cc1,inconclusive: -43.9%
18,Cc1ccc(NC(=S)N/N=C2/CCCCc3ccccc32)cc1,active: -61.4%
19,O=C1NCCN1CCN1CCC(c2cn(-c3ccc(F)cc3)c3ccc(Cl)cc23)CC1,inconclusive: -42.2%
20,CCOC(=O)c1cnc(SC)nc1Sc1ccccc1Cl,inactive: -15%
21,CC1=C(C(=O)OCC(Cl)(Cl)Cl)N2C(=O)C(NC(=O)Cc3ccccc3)C2SC1 (configuration not stated),inconclusive: -50.3%
22,CCn1c2ccccc2nc2cc3c(cc21)c(Cl)c(=O)c1ccccc13,inactive: 3.65%

row,Compound,"activity change, negative = inhibition"
1,O=c1cc(C(F)(F)F)nc(SC/C=C/c2ccccc2)[nH]1,active: -77.5%
2,Nc1nc(SCC(=O)Nc2cc(Cl)c(Cl)cc2Cl)n[nH]1,inactive: -7.81%
3,COc1ccc(-c2csc(NC(=O)c3ccccc3NS(=O)(=O)c3ccc(C)cc3)n2)cc1,inconclusive: -47.2%
4,Cc1ccc(C(=O)NCC2CCCN2S(=O)(=O)c2cccs2)cc1C (configuration not stated),inactive: -1.12%
5,O=C(CCCCCn1c(=S)[nH]c2ccc(N3CCOCC3)cc2c1=O)NCc1ccccc1Cl,active: -104%
6,CC1=C(CCN2CCN(C(C)C)C(CCO)C2)C(C)(C)CCC1 (configuration not stated),inconclusive: -55.7%
7,CCN(c1ccc(Cl)cc1)S(=O)(=O)c1nnc(NC(=O)c2ccccc2C)s1,inconclusive: -49.7%
8,Cc1ccc2[nH]cc(C(c3ccccc3)c3ccc(C)s3)c2c1 (configuration not stated),inconclusive: -53.8%
9,COc1ccc(Oc2c(Cl)cnn(-c3ccc(F)cc3)c2=O)cc1,inactive: -0.0818%
10,COc1ccc(/C=C/C(=O)NNC(=O)c2cc(C)oc2C)cc1,active: -61.9%
11,O=C(CN1C(=O)C2CC=CCC2C1=O)Nc1nc(-c2ccc(F)cc2)cs1 (configuration not stated),active: -83.9%
12,O=C(Nc1nc(-c2ccncc2)cs1)C1c2ccccc2Oc2ccccc21,inconclusive: -42.2%
13,O=C(Nc1ccc(S(=O)(=O)N2CCCCC2c2cccnc2)cc1)c1ccc(Br)cc1 (configuration not stated),inconclusive: -53.5%
14,Cc1ccc(SCC(=O)Nc2ccc(C(=O)Nc3ccc(O)cc3)cc2)cc1,inconclusive: -46%
15,CN1CCN(/N=C/c2ccc(N(c3ccccc3)c3ccccc3)cc2)CC1,inactive: -12.6%
16,CCOC(=O)N1CCN(C(=O)CN(Cc2ccc(Cl)cc2)S(=O)(=O)c2ccccc2)CC1,inactive: 8.34%
17,COc1ccccc1Oc1ccc(-c2cnc3ccccc3n2)cc1[N+](=O)[O-],inconclusive: -40.1%
18,Cc1cc(F)ccc1S(=O)(=O)Nc1ccc2oc3c(c2c1)CC(C)CC3 (configuration not stated),inconclusive: -59.2%
19,CCOC(=O)c1c(-c2ccc(C)o2)csc1NC(=O)CSc1nncs1,inconclusive: -56.3%
20,CC(=O)c1ccc(NC(=O)c2cnn(-c3cccc(F)c3)c2-n2cccc2)cc1,active: -67.6%
21,CNCc1ccccc1Sc1cc(O)ccc1O,inconclusive: -41.4%
22,COc1cccc(NC(=O)C(=S)NC2CCCCC2)c1,inconclusive: -56.4%

row,Compound,"activity change, negative = inhibition"
1,Cc1ccc(S(=O)(=O)Nc2ccc3c(c2)nc(CCN2CCCCC2)n3C)cc1,inactive: -2.88%
2,CC(=O)N1CCN(C(=O)c2ccc(S(=O)(=O)Nc3ccccc3Cl)cc2)CC1,inconclusive: -50.3%
3,O=C(O)c1oc2ccccc2c1CSc1ccc(Cl)cc1,inconclusive: -49%
4,c1ccc(COc2ccc(OCCCNC3CCCC3)cc2)cc1,active: -86.1%
5,C=CCC(Nc1ccccc1)c1cccc(OC)c1OC (configuration not stated),inconclusive: -48.4%
6,CC(=O)c1ccc(-n2c(CCC(=O)O)ccc2-c2ccc(Br)cc2)cc1,inactive: 2.7%
7,Cc1ccc(-n2nnnc2CNC(=O)c2cc(C(F)(F)F)cc(C(F)(F)F)c2)cc1C,inconclusive: -45.2%
8,CCC(C)NC(=O)Cn1c(=O)n(CCCCCC(=O)NCc2ccccc2Cl)c(=O)c2sccc21 (configuration not stated),inactive: 3.81%
9,CCOc1ccc(S(=O)(=O)N2CCCC(C(=O)NC3CC3)C2)cc1Cl (configuration not stated),inconclusive: -42.6%
10,O=C(O)CCCCn1c(SCC(=O)Nc2ccccc2C(F)(F)F)nc2ccsc2c1=O,inconclusive: -41%
11,CCC1CN(C(=O)N2CCC(C(=O)NCCc3ccccc3Cl)CC2)c2cc(C)ccc2O1 (configuration not stated),active: -87.5%
12,COc1cc(OC)cc(-c2n[nH]c(=S)n2-c2cc(OC)ccc2OC)c1,inconclusive: -43.1%
13,Cc1ccc(C)c(Cn2nnc3c(=O)[nH]c(C(=O)Nc4ccc(F)cc4)nc32)c1,inconclusive: -50.9%
14,CCOc1cc(C(=O)Nc2ccccc2F)cc(Br)c1OCC,inconclusive: -49.7%
15,O=C1NN=C(c2ccc(Br)cc2)CC1c1ccc(Cl)cc1 (configuration not stated),active: -60.5%
16,Cc1cc(C)c(OCC(=O)N(Cc2ccco2)Cc2ccco2)c(C)c1,inconclusive: -44.6%
17,CCOC(=O)c1c(C)n(C)c2ccc(O)c(CN3CCCCC3)c12,inactive: -5.71%
18,O=C(COc1cccc(C(F)(F)F)c1)NCC(c1ccco1)N1CCCCC1 (configuration not stated),active: -61%
19,Cc1ccc(C(=O)O)cc1N=Cc1cc(Br)cc(Br)c1O,inconclusive: -56.1%
20,COc1ccc2[nH]c3c(=O)n(Cc4ccc(C(=O)N5CCCC5)cc4)c(=S)[nH]c3c2c1,inconclusive: -58.1%
21,O=C(COc1ncnc2cc(Cl)ccc12)c1ccc2c(c1)OCCO2,inactive: -3.25%
